# Reference: the supplement of paper PMC10338343
# ± gives the standard deviation. Over roughly 3,000 sequences, “pre-steady-state target cleavage rate” has its median near 0.0079; the highest 2% begin near 0.2. The entries are a selection whose mix differs from that of the whole data set.
# Test system: MILI (PIWIL2) piRISC loaded with piRNA #2 (26 nt)
# Experiment: pre-steady-state target cleavage rate (min^-1); MIWI and MILI are mouse PIWI proteins and EfPiwi is from a freshwater sponge; tags in brackets are library labels; higher = faster piRNA-guided slicing of the target
# Details: guide: piRNA #2 5'p-UUAGGUAACCCAGUAGAUCCAGAGGA; auxiliary factor: 500 nM mouse GTSF1
# In short: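 Cleave-'n-Seq reactions paired 0.1 nM transcribed, DNA-blocked target RNA library with 1 nM active affinity-purified piRISC holding one synthetic guide, plus or minus 500 nM GTSF1 partner protein, in HEPES–potassium acetate buffer at 33 °C for 0–8 or 0–960 min. After sequencing of uncleaved targets and normalisation to depth and weakly complementary targets, the pre-steady-state cleavage rate was taken from a burst-and-steady-state fit. Three trials were pooled, and k3 was capped at 0.0001 min^-1.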
row,Sequence,pre-steady-state target cleavage rate
1,CUUAACCACUGGAUCUACUGGGUUACCUAA,0.104 ± 0.017
2,CUUAUGGACUGGAUCUACUGGGUUACCUAA,0.0559 ± 0.018
3,CUUAAGCUCCGGAUCUACUGGGUUACCUAA,0.071 ± 0.024
4,CUUAAGCUCUGGAUCUACUGGGAUACCUAA,0.0297 ± 0.0083
5,CUUAAGCUCUGGAUCUACUGGGUUACCUA,0.0941 ± 0.025
6,CUUAAGCUCUGGAUCUACUGGGUUCACCUAA,0.0506 ± 0.017
7,CUUAAGGUCUGGAUCUACUGGGUGUACCUAA,0.0466 ± 0.011
8,CUUAACCUCUGGAUCAACAGGGUUACCUAA,0.0692 ± 0.011
9,CUUAACCUCUGGAUCUACUGGGCUUACCUAA,0.042 ± 0.012
10,CUUAUGCUCUGGAUCUACUGGGUUACCUUA,0.108 ± 0.024
11,CUUAUCGUCUGGUUCUACUGGGUUACCUAA,0.0848 ± 0.012
12,CUUAAGCUCUGGAUCUACUGGGUUACGCUAA,0.121 ± 0.019
13,CUUAAGCUCUGGAUCUACUGGGUUAGCCUAA,0.0977 ± 0.019
14,CUUAAGGACUCGAUCUACUGGGUUAGCUAA,0.00479 ± 0.0041
15,CUUAACCUCUGGAUCGACUGGGUUACCUAA,0.08 ± 0.015
16,CUUAAGCUCUGGUAUCUACUGGGUUACCUAA,0.15 ± 0.038
17,CUUAACCUCUGCUUCUACUGGGUUACCUAA,0.122 ± 0.027
18,CUUAACCUCUGGAUCAACUGGGUUUCCUAA,0.101 ± 0.038
19,CUUAACGUCUGGAUCUUCUGGGUUACCUAA,0.0809 ± 0.018
20,CUUAACCUCAUGGAUCUACUGGGUUACCUAA,0.0621 ± 0.021
21,CUUAACCUCUGGAACUACUGGGUUACCAAA,0.0906 ± 0.032
22,CUUAAGCUCUGGAUCUAGUGGGUUACCAAA,0.0249 ± 0.0083
23,CUUAAGCUCUGGAACUAGUGGGUUACCUAA,0.0466 ± 0.011
24,CUUAACCUCUGGAUCUACUGGGUUCACCUAA,0.0871 ± 0.022
25,CUUAUCCUCUGCAUCUACUGGCUUACCUAA,0.00387 ± 0.0038

row,Sequence,pre-steady-state target cleavage rate
1,CUUAUCCUCUGUGAUCUACUGGGUUACCUAA,0.0855 ± 0.017
2,CUUAUCCUCUCGAUCUACUGGGUAACCUAA,0.0833 ± 0.02
3,CUUAACCUCUGCAUCUACUGGGUUAGCUAA,0.0731 ± 0.033
4,CUUAAGCUCUGGUUCUACUGGGAUACCUAA,0.0905 ± 0.038
5,CUUAACCUCUGGAUCAACUGCGUUACCUAA,0.007 ± 0.0041
6,CUUAACCUCGUGGAUCUACUGGGUUACCUAA,0.0507 ± 0.024
7,CUUAAGCUCUGGAACUACUGGGUUACCAAA,0.0603 ± 0.017
8,CUUAAGGACUGGAAGUACUGGGUUACCUAA,0.0144 ± 0.011
9,CUUAACCUCUGGAUCUUGUGGGUUACCUAA,0.0204 ± 0.0087
10,CUUAACCUCUCGAUCUACUGGGUAACCUAA,0.0796 ± 0.017
11,CUUAUCCUCUGGAUCUAGAGGGUUACCUAA,0.0653 ± 0.018
12,CUUAACCUCGGGAUCUACUGGGUUACCUAA,0.077 ± 0.031
13,CUUAAGGUUGGAUCUACUGGGUUACCUAA,0.0237 ± 0.014
14,CUUAACCUCUGGAUCUACUGGGAUACGUAA,0.00919 ± 0.0053
15,CUUAACCUCUGGAUCUACUGGGUUAACUAA,0.135 ± 0.025
16,CUUAAGGUCUGGUUCUACUGGGUAACCUAA,0.011 ± 0.0078
17,CUUAUCCUCUGGAUCAAGUGGGUUACCUAA,0.0417 ± 0.0092
18,CUUAAGGUCAGGAUCUUCUGGGUUACCUAA,0.0121 ± 0.0079
19,CUUAAGGAGAGAGAUCUACUGGGUUACCUAA,0.00828 ± 0.0038
20,CUUAAGGACUGGAUUUACUGGGUUACCUAA,0.0377 ± 0.019
21,CUUAUCGUCUGGAUCUACUGGGUUUCCUAA,0.0411 ± 0.011
22,CUUAUCCUCUGGAUUCUACUGGGUUACCUAA,0.12 ± 0.031
23,CUUAAGCUCUGGUUCUAGUGGGUUACCUAA,0.0926 ± 0.021
24,CUUAAGGUCUGGAUUACUGGGUUACCUAA,0.00675 ± 0.0055
25,CUUAAGCUGUGGAUGUACUGGGUUACCUAA,0.0455 ± 0.03

row,Sequence,pre-steady-state target cleavage rate
1,CUUAAGCUCUGGACCUACUGGGUUACCUAA,0.0301 ± 0.013
2,CUUAACCUCUGCAUCUACUGGGUAACCUAA,0.0645 ± 0.021
3,CUUAAGGAGACCUAGUACUGGGUUACCUA,< 0.0001
4,CUUAUCCUCUGGAUCUACUGGGAAACCUAA,0.0949 ± 0.035
5,CUUAAGCUCUGCAUCUACUGGGUAACCUAA,0.0247 ± 0.0069
6,CUUAACCUCUGGAUCUACUGGGUAACCAAA,0.0211 ± 0.0092
7,CUUAAGCUCUGGAUCUACUGGGAUACCAAA,0.0258 ± 0.0092
8,CUUAUCGACUGGAUCUACUGGGUUACCUAA,0.0851 ± 0.018
9,CUUAAGGUCUGGAUGUACUGGGUUACCUUA,0.0242 ± 0.016
10,CUUAAGCUCUGGAACUACUGGGAUACCUAA,0.0218 ± 0.01
11,CUUAAGGUCUGGCAUCUACUGGGUUACCUAA,0.211 ± 0.069
12,CUUAACCUCUCCUUCUACUGGGUUACCUAA,0.0862 ± 0.019
13,CUUAAGGACUGGAUCUACAGGGUAACCUAA,0.00684 ± 0.006
14,CUUAAGGUCUGGAUCUACAGGGAUACCUAA,0.0548 ± 0.015
15,CUUAAGGUCUGGAUCUACUGGGUUGACCUAA,0.045 ± 0.011
16,CUUAAGGUCUGGAUCUAUUGGGUUACCUAA,0.094 ± 0.024
17,CUUAUCCUCUGGAACUACUCGGUUACCUAA,0.00544 ± 0.0035
18,CUUAAGGUCUGGAUCUACUGGGUAUACCUAA,0.0617 ± 0.012
19,CUUAAGGUCUGGUUCUACUGGGUUAGCUAA,0.0165 ± 0.009
20,CUUAAGGAGAGGAUCUACUGGGUUACCUAU [g2:g20:cont:t1U],0.015 ± 0.0051
21,CUUAAGGUCAGCAUCUACUGGGUUACCUAA,0.0206 ± 0.01
22,CUUAACCUCUCGAUCUACUGGGUUUCCUAA,0.138 ± 0.035
23,CUUAACCUCUGGAUCUACACGGUUACCUAA,0.0116 ± 0.0037
24,CUUAAGGACUGGAUCUACCGGGUUACCUAA,0.014 ± 0.0053
